About 300 (0.091%) of roughly 330,000 compounds were called active. The inconclusive results got no clear call from the source; some entries with a clear call stand among them for comparison. Calls follow the shape of the dose curve; as a rule, active = well fitted inhibition curve with a large enough effect; inconclusive = small, poorly fitted or top-dose-only effect, or effect the other way, or another doubt; inactive = no such curve, though single readings can be large or run the other way. No potency is given beside an inconclusive call; the fits are too rough.
biological target: Lysosomal acid glucosylceramidase (Homo sapiens) (UniProt P04062); assay: qHTS Assay for Inhibitors and Activators of N370S glucocerebrosidase as a Potential Chaperone Treatment of Gaucher Disease; conditions: N370S GC spleen homogenate, 4MU-glucoside fluorescence; activity change, negative = inhibition: at 59.4 µM (top of the series) unless noted;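 as to activity change, negative = inhibition: 0% = full enzyme activity and -100% = no enzyme basal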
Potency is read from the fitted curve at half-maximal effect.

| Structure (SMILES) | Potency | activity change, negative = inhibition |
| --- | --- | --- |
| C=CCn1c(N)c(C(=O)OCC(C)C)c2nc3ccccc3nc21 | inconclusive [activator, single point] |  |
| CC(=O)COc1ccc2c3c(c(=O)oc2c1C)CCCCC3 | inactive |  |
| CNC(=O)[C@H](Cc1c[nH]c2ccccc12)NC(=O)[C@@H](CC(=O)NO)CC(C)C | inconclusive [inhibitor, single point] |  |
| COc1ccccc1CNc1cc(-c2ccccc2Cl)ncn1 | inconclusive [inhibitor, single point] |  |
| Cc1ccccc1OCC(=O)Nn1c(COc2ccccc2)nc2ccccc2c1=O | inconclusive [activator, partial curve] |  |
| CC(C)=CCC1(CC=C(C)C)C(=O)C(C(=O)c2ccccc2)=C2OC(C)(C)CCC2(CC=C(C)C)C1=O (configuration not stated) |  | inactive: -9.76% [at 12.8 µM] |
| CC1=NN(Cc2ccccc2)C(=O)C1C(c1ccc(Cl)cc1)C(C#N)C#N (configuration not stated) | inactive |  |
| O=C(c1ccco1)N1CCN(C/C=C/c2ccccc2)CC1 | inconclusive [activator, partial curve] |  |
| CCN1/C(=C/C=C/c2oc3ccc(-c4ccccc4)cc3[n+]2CC)Oc2ccc(-c3ccccc3)cc21 | inconclusive [inhibitor, full curve] |  |
| Cn1c(=O)c2c(nc(N3CCCCCC3)n2Cc2cccc3ccccc23)n(C)c1=O | inconclusive [activator, partial curve, poor fit] |  |
| COc1ccccc1C(=O)NCCC(=O)NC1CCCCC1C (configuration not stated) | inactive |  |
| CCN(CC)CCOC(=O)c1ccc(NC(=O)CCCN2C(=O)/C(=C/c3cccs3)SC2=S)cc1 | inconclusive [inhibitor, single point] |  |
| CC(C)(C)NC(=O)Nc1ccc2nccnc2c1 | inactive |  |
| O=C1CC(C(F)(F)C(F)(F)C(F)(F)C(F)(F)F)=Nc2ccccc2N1 | inconclusive [activator, single point] |  |
| Cc1ccc2cc(CN(Cc3ccco3)C(=S)NCC3CCCO3)c(=O)[nH]c2c1C (configuration not stated) | inconclusive [activator, single point] |  |
| Cc1ccc(OCC(=O)NNC(=O)C(C)Sc2ncnc3sc(C)c(C)c23)cc1 (configuration not stated) | inconclusive [activator, partial curve, poor fit] |  |
| Cc1cc(C)n2ncc(C(=O)NCc3ccccc3)c2n1 | inconclusive [activator, partial curve] |  |
| Nc1nc(Sc2ccc(C(F)(F)F)cc2[N+](=O)[O-])n[nH]1 | inactive |  |
| CCOC(=O)Cn1nnc(-c2cc(OC)c(OC)c(OC)c2)n1 | inactive |  |
| COC(=O)C1=C(C)NC(C)=C(C(=O)OCCCN2CCC(c3ccccc3)(c3ccccc3)CC2)[C@H]1c1cccc([N+](=O)[O-])c1 | inconclusive [inhibitor, single point] |  |
| COC(=O)c1[nH]c2ccc(C)cc2c1NC(=O)CN1CCN(Cc2ccccc2)CC1 | inactive |  |

| Structure (SMILES) | Potency | activity change, negative = inhibition |
| --- | --- | --- |
| CCN1CCCC1CNC(=O)c1ccc2c(c1)NC(=O)/C(=C\c1ccc(C)cc1)S2 (configuration not stated) | inconclusive [inhibitor, partial curve] |  |
| CC(C)N1CCN(Cc2cccn2-c2cccnc2)CC1CCO (configuration not stated) | inconclusive [inhibitor, single point] |  |
| Cc1c(CC(=O)NCC(=O)O)c(=O)oc2cc3oc4c(c3cc12)CCCC4 | inconclusive [activator, single point] |  |
| Cc1cc2c(Nc3ccc(O)cc3)ncnc2s1 | inconclusive [inhibitor, full curve] |  |
| CCCCN(CC)CCCNC(=O)c1cc2cc3ccc(OC)cc3nc2o1 | inconclusive [activator, partial curve] |  |
| COc1cc(OC)cc(C(=O)NNC(=O)c2ccccn2)c1 | inactive |  |
| COc1ccc(NC(=O)c2nn(C34CC5CC(CC(C5)C3)C4)cc2[N+](=O)[O-])cc1 | inconclusive [activator, partial curve] |  |
| COc1cccc(NC(=O)CSc2nc3ccccc3c(=O)n2C)c1 | inconclusive [activator, single point] |  |
| CCCP(=O)(CC(=O)N(CC)CC)c1ccccc1 (configuration not stated) |  | inconclusive: 33% [activator] |
| N#CCC1c2ccccc2CCN1C(=O)Nc1cccc(C(F)(F)F)c1 (configuration not stated) |  | inconclusive: 24.9% [activator] |
| CCOc1cccc2sc(N(CCCN(C)C)C(=O)c3ccc(S(=O)(=O)N(C)Cc4ccccc4)cc3)nc12 | inconclusive [inhibitor, single point] |  |
| COc1ccccc1NC(=O)Cn1c2ccc(F)cc2c2nc3n(c(=O)c21)CCS3 | inconclusive [activator, single point] |  |
| Cc1ccc(CNC(=O)C2CC(c3cccc(F)c3)=NO2)cc1 (configuration not stated) | inactive |  |
| COc1cccc(NC(=S)NCCC(c2ccccc2)c2ccccc2)c1 | inconclusive [activator, partial curve] |  |
| C(=N\N(c1ccccc1)c1ccccc1)/c1ccc2c(c1)OCO2 | inconclusive [inhibitor, single point] |  |
| CCCNC(=O)COC(=O)c1ccccc1OCC(=O)Nc1ccc(Br)cc1 | inconclusive [activator, full curve] |  |
| CC(OC(=O)c1ccccc1NCc1ccco1)C(=O)Nc1ncc(Cl)cc1Cl (configuration not stated) | inconclusive [activator, single point] |  |
| c1ccc(-c2noc(CSc3nnnn3-c3ccccc3)n2)cc1 | inconclusive [activator, single point] |  |
| CCc1ccccc1NC(=O)c1cnc2n(c1=O)CCS2 | inconclusive [activator, full curve, poor fit] |  |
| CCOC(=O)Cc1csc(NC(=O)CSc2nc(N)c3c(C)c(C)sc3n2)n1 | inconclusive [activator, single point] |  |
| COc1cccc(NC(=S)N(CCCN2CCOCC2)Cc2cn(C)c3ccccc23)c1 | active: 2.82 µM |  |
